In experiment [1] the target is T1, macrophage-inducible C-type lectin (Mincle), V5-tagged (mouse (cDNA from BMMs of mice)) (UniProt Q9R0Q8).
T1 sequence: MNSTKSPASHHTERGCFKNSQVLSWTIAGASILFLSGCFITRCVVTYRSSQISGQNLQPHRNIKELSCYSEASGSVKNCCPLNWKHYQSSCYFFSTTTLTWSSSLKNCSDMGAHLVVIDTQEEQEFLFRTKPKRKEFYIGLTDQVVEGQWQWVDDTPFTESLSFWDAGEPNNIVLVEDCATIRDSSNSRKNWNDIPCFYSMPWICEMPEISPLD
The experiment can be described thus: co-IP; iBMM cells stably expressing Mincle-V5, stimulated with TDM for the indicated times; NP-40 lysis buffer; V5 agarose overnight at 4 °C; immunoblot. For orientation: A western blot detects proteins with antibodies after separation by electrophoresis.

Sequences of proteins named here, by UniProt entry; tags and fusion partners are left off. Residues count along the entry.
UniProt P29351: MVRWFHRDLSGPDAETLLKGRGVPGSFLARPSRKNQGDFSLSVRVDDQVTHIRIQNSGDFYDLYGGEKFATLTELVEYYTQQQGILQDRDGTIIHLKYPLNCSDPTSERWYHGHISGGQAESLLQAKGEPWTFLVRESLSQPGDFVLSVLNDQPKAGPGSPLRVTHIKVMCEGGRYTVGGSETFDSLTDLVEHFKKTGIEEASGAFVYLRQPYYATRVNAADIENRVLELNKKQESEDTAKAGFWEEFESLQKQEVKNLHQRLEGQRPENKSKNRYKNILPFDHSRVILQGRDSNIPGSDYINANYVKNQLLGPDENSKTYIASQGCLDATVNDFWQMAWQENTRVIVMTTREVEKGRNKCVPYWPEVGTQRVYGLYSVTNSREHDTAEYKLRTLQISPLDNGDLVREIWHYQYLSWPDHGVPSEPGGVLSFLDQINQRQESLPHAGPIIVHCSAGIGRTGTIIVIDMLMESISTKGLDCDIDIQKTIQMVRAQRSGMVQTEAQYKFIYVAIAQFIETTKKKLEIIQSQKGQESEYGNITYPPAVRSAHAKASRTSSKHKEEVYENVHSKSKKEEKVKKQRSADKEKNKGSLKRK
UniProt P25911: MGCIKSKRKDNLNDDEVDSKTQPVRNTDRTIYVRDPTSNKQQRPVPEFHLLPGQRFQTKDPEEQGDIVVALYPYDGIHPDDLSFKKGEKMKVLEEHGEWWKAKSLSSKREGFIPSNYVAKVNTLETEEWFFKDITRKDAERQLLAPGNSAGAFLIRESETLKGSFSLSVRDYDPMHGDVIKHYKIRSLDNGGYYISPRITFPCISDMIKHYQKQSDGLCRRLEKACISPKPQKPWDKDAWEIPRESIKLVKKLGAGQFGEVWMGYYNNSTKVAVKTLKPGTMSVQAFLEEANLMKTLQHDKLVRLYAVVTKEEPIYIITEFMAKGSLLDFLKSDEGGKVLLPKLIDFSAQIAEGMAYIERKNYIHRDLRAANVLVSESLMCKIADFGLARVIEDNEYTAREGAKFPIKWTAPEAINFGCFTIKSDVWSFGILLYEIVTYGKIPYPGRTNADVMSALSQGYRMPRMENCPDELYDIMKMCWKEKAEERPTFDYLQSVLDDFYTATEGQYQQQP
UniProt P05555, residues 17-1153: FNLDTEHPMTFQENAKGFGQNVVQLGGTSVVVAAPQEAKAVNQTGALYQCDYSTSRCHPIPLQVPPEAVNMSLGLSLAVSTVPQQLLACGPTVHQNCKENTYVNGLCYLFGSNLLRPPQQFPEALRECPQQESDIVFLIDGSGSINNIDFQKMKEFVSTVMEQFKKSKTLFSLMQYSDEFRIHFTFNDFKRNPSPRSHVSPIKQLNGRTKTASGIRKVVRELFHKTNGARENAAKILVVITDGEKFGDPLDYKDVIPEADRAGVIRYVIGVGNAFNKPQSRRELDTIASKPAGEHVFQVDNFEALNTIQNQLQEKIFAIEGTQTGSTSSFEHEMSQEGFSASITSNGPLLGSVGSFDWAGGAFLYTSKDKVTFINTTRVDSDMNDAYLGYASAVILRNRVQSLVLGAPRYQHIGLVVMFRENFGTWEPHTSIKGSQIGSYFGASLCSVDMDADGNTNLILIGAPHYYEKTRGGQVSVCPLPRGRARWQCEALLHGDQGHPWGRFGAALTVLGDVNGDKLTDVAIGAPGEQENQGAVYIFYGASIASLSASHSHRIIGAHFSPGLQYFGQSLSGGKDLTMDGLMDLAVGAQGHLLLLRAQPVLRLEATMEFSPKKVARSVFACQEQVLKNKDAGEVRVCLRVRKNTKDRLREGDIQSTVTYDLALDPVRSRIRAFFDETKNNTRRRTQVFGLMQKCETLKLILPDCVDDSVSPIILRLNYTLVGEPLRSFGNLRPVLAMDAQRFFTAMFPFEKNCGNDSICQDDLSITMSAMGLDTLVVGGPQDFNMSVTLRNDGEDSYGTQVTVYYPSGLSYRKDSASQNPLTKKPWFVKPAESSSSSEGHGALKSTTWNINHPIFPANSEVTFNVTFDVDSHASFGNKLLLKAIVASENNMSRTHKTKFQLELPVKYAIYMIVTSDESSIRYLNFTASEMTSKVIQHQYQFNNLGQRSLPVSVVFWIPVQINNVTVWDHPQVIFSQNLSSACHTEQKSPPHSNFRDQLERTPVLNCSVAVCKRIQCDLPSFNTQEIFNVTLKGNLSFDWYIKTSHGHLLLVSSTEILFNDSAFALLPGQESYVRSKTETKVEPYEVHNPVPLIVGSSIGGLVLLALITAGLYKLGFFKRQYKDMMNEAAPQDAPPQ

Experiment [2] concerns the target SHP1, endogenous (mouse (endogenous in iBMM and BMM)) (UniProt P29351). The experiment can be described thus: co-IP; endogenous proteins in WT BMMs after TDM stimulation; NP-40 lysis buffer; agarose-A beads with Lyn or SHP1 antibodies overnight at 4 °C; immunoblot.
In experiment [3] the target is Lyn kinase, endogenous (mouse (endogenous in BMM and iBMM)) (UniProt P25911). The experiment is described as above.
Experiment [4] deals with Lyn kinase, HA-tagged (mouse (cDNA from BMMs of mice)) (UniProt P25911). The experiment can be described thus: proximity ligation; Duolink in situ PLA in WT iBMMs under resting (basal) conditions, without TDM.
The target of experiment [5] is T1, macrophage-inducible C-type lectin (Mincle), V5-tagged (mouse (cDNA from BMMs of mice)). The experiment can be described thus: proximity ligation; Duolink in situ PLA in WT iBMMs transfected for 24 h and seeded on TDM-coated slides (TDM 50 ug/ml, 12-24 h; fibrinogen 30 min as a further stimulus in Figure 4c); fixed in 4% paraformaldehyde; for pairs called independent of TDM also without TDM.

For experiment [6], the target named is Lyn kinase, HA-tagged (mouse (cDNA from BMMs of mice)) (UniProt P25911). Described as above.
The target in experiment [7] is SH2 domain-containing phosphatase 1 (SHP1), Flag-tagged (mouse (cDNA from BMMs of mice)) (UniProt P29351). The experiment is described as above.
Experiment [8] deals with integrin CD11b, Flag-tagged (mouse (cDNA from BMMs of mice)) (UniProt P05555). The experiment is described as above.
The target in experiment [9] is Lyn kinase, HA-tagged (mouse (cDNA from BMMs of mice)) (UniProt P25911). The description is as above. This is another data set of the same source.
Experiment [10] has as its target SH2 domain-containing phosphatase 1 (SHP1), Flag-tagged (mouse (cDNA from BMMs of mice)) (UniProt P29351). The experiment can be described thus: proximity ligation; Duolink in situ PLA in WT iBMMs under resting (basal) conditions, without TDM.
Experiment [11] deals with integrin CD11b, Flag-tagged (mouse (cDNA from BMMs of mice)) (UniProt P05555). The experiment is described as above.
Experiment [12] has as its target Lyn kinase, HA-tagged (mouse (cDNA from BMMs of mice)) (UniProt P25911). The description is as above. This is another data set of the same source.
Experiment [13] deals with T1, macrophage-inducible C-type lectin (Mincle), V5-tagged (mouse (cDNA from BMMs of mice)). The experiment can be described thus: proximity ligation; Duolink in situ PLA in WT iBMMs transfected for 24 h and seeded on TDM-coated slides (TDM 50 ug/ml, 12-24 h; fibrinogen 30 min as a further stimulus in Figure 4c); fixed in 4% paraformaldehyde; for pairs called independent of TDM also without TDM. This is another data set of the same source.

Experiment [14] shares this target. The experiment can be described thus: proximity ligation; Duolink in situ PLA in Syk-/- iBMMs stimulated with TDM.
Experiment [15] addresses integrin CD11b, Flag-tagged (mouse (cDNA from BMMs of mice)) (UniProt P05555). Described as above.
Experiment [16] concerns the target T1, macrophage-inducible C-type lectin (Mincle), V5-tagged (mouse (cDNA from BMMs of mice)). The experiment can be described thus: proximity ligation; Duolink in situ PLA in Lyn-/- iBMMs stimulated with TDM.
For experiment [17], the target named is integrin CD11b, Flag-tagged (mouse (cDNA from BMMs of mice)) (UniProt P05555). The description is as above.

Results are given in words; binding and its absence hold for the method and conditions named. In cells and extracts the contact can be indirect. Some entries that bind do so weakly or less than the wild type. For some of these results: Tags and fused reporters may be left off the sequences shown.

As to “SHP1, endogenous (from UniProt P29351 1-595) (enzyme)”, in [1], the binding entry is listed as “binds”.

On to “integrin CD11b, endogenous (from UniProt P05555 17-1153) (receptor)”, for which the binding result in experiment [2], in experiment [3] and in [1] was “binds” in each case.

Consider “integrin CD11b, Flag-tagged (from UniProt P05555 17-1153) (receptor)”, for which the binding result is “no binding (condition: without TDM stimulation)” in experiment [4], “binds” in experiment [5] and “binds” in experiment [6].

B1: Pirb (receptor, UniProt P97484 25-841)
chain: SLPKPILRVQPDSVVSRRTKVTFLCEETIGANEYRLYKDGKLYKTVTKNKQKPENKAEFSFSNVDLSNAGQYRCSYSTQYKSSGYSDLLELVVTGHYWTPSLLAQASPVVTSGGYVTLQCESWHNDHKFILTVEGPQKLSWTQDSQYNYSTRKYHALFSVGPVTPNQRWICRCYSYDRNRPYVWSPPSESVELLVSGNLQKPTIKAEPGSVITSKRAMTIWCQGNLDAEVYFLHNEKSQKTQSTQTLQEPGNKGKFFIPSVTLQHAGQYRCYCYGSAGWSQPSDTLELVVTGIYEYYEPRLSVLPSPVVTAGGNMTLHCASDFPYDKFILTKEDKKFGNSLDTEHISSSGQYRALFIIGPTTPTHTGAFRCYGYYKNAPQLWSVPSALQQILISGLSKKPSLLTHQGHILDPGMTLTLQCFSDINYDRFALHKVGGADIMQHSSQQTDTGFSVANFTLGYVSSSTGGQYRCYGAHNLSSEWSASSEPLDILITGQLPLTPSLSVQPNHTVHSGETVSLLCWSMDSVDTFILSKEGSAQQPLRLKSKSHDQQSQAEFSMSAVTSHLSGTYRCYGAQDSSFYLLSSASAPVELTVSGPIETSTPPPTMSMPLGGLHMYLKALIGVSVAFILFLFIFIFILLRRRHRGKFRKDVQKEKDLQLSSGAEEPITRKGELQKRPNPAAATQEESLYASVEDMQTEDGVELNSWTPPEEDPQGETYAQVKPSRLRKAGHVSPSVMSREQLNTEYEQAEEGQGANNQAAESGESQDVTYAQLCSRTLRQGAAASPLSQAGEAPEEPSVYATLAAARPEAVPKDMEQ
Turning to B1, the binding result in [7], in experiment [8] and in [9] was “binds” throughout.

B2: SH2 domain-containing 5'-inositol phosphatase (SHIP1), Myc-tagged (enzyme, UniProt Q9ES52 1-1191)
chain: MPAMVPGWNHGNITRSKAEELLSRAGKDGSFLVRASESIPRAYALCVLFRNCVYTYRILPNEDDKFTVQASEGVPMRFFTKLDQLIDFYKKENMGLVTHLQYPVPLEEEDAIDEAEEDTVESVMSPPELPPRNIPMSAGPSEAKDLPLATENPRAPEVTRLSLSETLFQRLQSMDTSGLPEEHLKAIQDYLSTQLLLDSDFLKTGSSNLPHLKKLMSLLCKELHGEVIRTLPSLESLQRLFDQQLSPGLRPRPQVPGEASPITMVAKLSQLTSLLSSIEDKVKSLLHEGSESTNRRSLIPPVTFEVKSESLGIPQKMHLKVDVESGKLIVKKSKDGSEDKFYSHKKILQLIKSQKFLNKLVILVETEKEKILRKEYVFADSKKREGFCQLLQQMKNKHSEQPEPDMITIFIGTWNMGNAPPPKKITSWFLSKGQGKTRDDSADYIPHDIYVIGTQEDPLGEKEWLELLRHSLQEVTSMTFKTVAIHTLWNIRIVVLAKPEHENRISHICTDNVKTGIANTLGNKGAVGVSFMFNGTSLGFVNSHLTSGSEKKLRRNQNYMNILRFLALGDKKLSPFNITHRFTHLFWLGDLNYRVELPTWEAEAIIQKIKQQQYSDLLAHDQLLLERKDQKVFLHFEEEEITFAPTYRFERLTRDKYAYTKQKATGMKYNLPSWCDRVLWKSYPLVHVVCQSYGSTSDIMTSDHSPVFATFEAGVTSQFVSKNGPGTVDSQGQIEFLACYATLKTKSQTKFYLEFHSSCLESFVKSQEGENEEGSEGELVVRFGETLPKLKPIISDPEYLLDQHILISIKSSDSDESYGEGCIALRLETTEAQHPIYTPLTHHGEMTGHFRGEIKLQTSQGKMREKLYDFVKTERDESSGMKCLKNLTSHDPMRQWEPSGRVPACGVSSLNEMINPNYIGMGPFGQPLHGKSTLSPDQQLTAWSYDQLPKDSSLGPGRGEGPPTPPSQPPLSPKKFSSSTANRGPCPRVQEARPGDLGKVEALLQEDLLLTKPEMFENPLYGSVSSFPKLVPRKEQESPKMLRKEPPPCPDPGISSPSIVLPKAQEVESVKGTSKQAPVPVLGPTPRIRSFTCSSSAEGRMTSGDKSQGKPKASASSQAPVPVKRPVKPSRSEMSQQTTPIPAPRPPLPVKSPAVLQLQHSKGRDYRDNTELPHHGKHRQEEGLLGRTAMQ
For B2, the binding entry in experiment [9] is “no binding”.

B3: SIRPα, endogenous (receptor, UniProt P97797 32-513)
chain: KELKVTQPEKSVSVAAGDSTVLNCTLTSLLPVGPIRWYRGVGPSRLLIYSFAGEYVPRIRNVSDTTKRNNMDFSIRISNVTPADAGIYYCVKFQKGSSEPDTEIQSGGGTEVYVLAKPSPPEVSGPADRGIPDQKVNFTCKSHGFSPRNITLKWFKDGQELHPLETTVNPSGKNVSYNISSTVRVVLNSMDVNSKVICEVAHITLDRSPLRGIANLSNFIRVSPTVKVTQQSPTSMNQVNLTCRAERFYPEDLQLIWLENGNVSRNDTPKNLTKNTDGTYNYTSLFLVNSSAHREDVVFTCQVKHDQQPAITRNHTVLGFAHSSDQGSMQTFPDNNATHNWNVFIGVGVACALLVVLLMAALYLLRIKQKKAKGSTSSTRLHEPEKNAREITQVQSLIQDTNDINDITYADLNLPKEKKPAPRAPEPNNHTEYASIETGKVPRPEDTLTYADLDMVHLSRAQPAPKPEPSFSEYASVQVQRK
Regarding B3, the binding entry is reported as “no binding (condition: without TDM stimulation)” in experiment [10]; “no binding (condition: without TDM stimulation)” in experiment [11]; “no binding (condition: without TDM stimulation)” in experiment [12]; “binds” in [7]; “binds” in experiment [13]; “binds” in experiment [8]. The binding entry is “binds” in experiment [9]; “binds weakly” in [14]; “binds weakly” in experiment [15]; “binds weakly” in experiment [16]; “binds weakly” in experiment [17].
